The source of these data is PMC4336329 (PLoS ONE, 2015).

The whole screen tested about 310,000 compounds, of which about 14,000 (4.5%) showed an effect of 50% or more. The effect is printed as a negative number. This is one part of the list.
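Also: peak tail current of the secondary pulse compared with the same well before compound.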

Sequence of human ether-à-go-go-related gene (hERG) potassium channel (Q12809 whole entry, looked up): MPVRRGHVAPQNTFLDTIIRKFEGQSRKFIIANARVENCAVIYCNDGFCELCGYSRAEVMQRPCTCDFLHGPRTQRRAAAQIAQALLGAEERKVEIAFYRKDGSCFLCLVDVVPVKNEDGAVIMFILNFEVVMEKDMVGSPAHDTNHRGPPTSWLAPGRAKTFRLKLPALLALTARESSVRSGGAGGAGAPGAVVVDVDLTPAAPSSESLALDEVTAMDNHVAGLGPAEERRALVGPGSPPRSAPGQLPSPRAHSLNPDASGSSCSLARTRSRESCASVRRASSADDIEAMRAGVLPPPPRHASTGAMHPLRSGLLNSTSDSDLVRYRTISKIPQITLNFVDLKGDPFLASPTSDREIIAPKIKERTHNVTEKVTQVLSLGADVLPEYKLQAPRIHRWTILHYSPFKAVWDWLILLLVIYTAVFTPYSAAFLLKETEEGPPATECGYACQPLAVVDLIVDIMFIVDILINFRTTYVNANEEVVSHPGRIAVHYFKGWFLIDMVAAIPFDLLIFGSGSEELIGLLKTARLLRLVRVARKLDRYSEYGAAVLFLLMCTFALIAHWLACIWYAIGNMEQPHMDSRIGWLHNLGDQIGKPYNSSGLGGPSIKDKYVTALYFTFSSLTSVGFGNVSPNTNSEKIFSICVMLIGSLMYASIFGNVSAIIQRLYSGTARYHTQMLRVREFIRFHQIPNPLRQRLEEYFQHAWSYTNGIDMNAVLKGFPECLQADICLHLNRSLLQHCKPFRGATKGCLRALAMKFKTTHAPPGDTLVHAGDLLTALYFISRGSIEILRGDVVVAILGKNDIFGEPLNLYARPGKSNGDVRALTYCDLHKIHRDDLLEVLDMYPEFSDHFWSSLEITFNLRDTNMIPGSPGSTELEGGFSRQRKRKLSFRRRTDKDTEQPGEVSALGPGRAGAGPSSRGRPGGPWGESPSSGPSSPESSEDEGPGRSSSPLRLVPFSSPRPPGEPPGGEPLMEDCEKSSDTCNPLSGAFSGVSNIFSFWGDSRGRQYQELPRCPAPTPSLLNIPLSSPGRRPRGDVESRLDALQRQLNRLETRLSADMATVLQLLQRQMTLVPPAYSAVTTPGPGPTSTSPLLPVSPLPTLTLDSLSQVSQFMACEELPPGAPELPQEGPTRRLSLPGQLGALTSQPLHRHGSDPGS

The experiment has as its target human ether-à-go-go-related gene (hERG) potassium channel (human, UniProt Q12809). Briefly: primary screen, population patch clamp on CHO cells stably expressing hERG.
Regarding `c1ccc2c(c1)CCN(c1nc3ccccc3n3cnnc13)C2`, the “hERG current change (%, negative = inhibition) at 10uM” value was -10.1%. Under `CCSc1nc(=S)n(CC)c(C)c1C(C)=O` stands -0.368%; under `CCN1CCN(CCC2Oc3cc([N+](=O)[O-])ccc3NC2=O)CC1` (stereo not shown), 13.7%; under `COc1cc(C2(c3ccc(O)c(OC)c3)C(=O)Nc3c(C)cc(Br)cc32)ccc1O`, -23.1%. In the case of `O=C(c1ccccc1)C1CCN(C(=O)c2c(F)cccc2F)CC1` it was 12.4%. Turning to `CN(C)S(=O)(=O)c1cccc(NC(=S)N/N=C/C2CC=CCC2)c1` (stereo not shown), the “hERG current change (%, negative = inhibition) at 10uM” value was -4.08%. On to `COc1ccc(C(=O)Nc2nc(N)n(-c3ccccc3)n2)cc1OC`, for which the “hERG current change (%, negative = inhibition) at 10uM” value is recorded as -0.41%. For the molecule `CN(CC(=O)Nc1ccc(F)cc1)CC(=O)N1CCCCCC1`, the “hERG current change (%, negative = inhibition) at 10uM” value was determined as 0.678%. In the case of `COc1cc2cc(CN(CCCN3CCOCC3)Cc3nnnn3Cc3ccccc3)c(=O)[nH]c2cc1OC`, the “hERG current change (%, negative = inhibition) at 10uM” value is recorded as -20.2%. Regarding `Cl.O=C([C@H](Cc1ccc(O)cc1)n1cc(CCO)nn1)N1CCNCC1`, the “hERG current change (%, negative = inhibition) at 10uM” value was found to be 24%. For the molecule `CN(C)CCN(Cc1cc2cc3c(cc2[nH]c1=O)OCO3)C(=S)NCc1ccco1`, the “hERG current change (%, negative = inhibition) at 10uM” value is given as -11.4%. Take `CCOc1ccc(CNC(=O)c2ccc(NC(=O)C3=CSCCO3)cc2)cc1`: the “hERG current change (%, negative = inhibition) at 10uM” value is given as 12%.

Consider `Cc1cc(C)c(C)c(S(=O)(=O)N2CCN(Cc3nc4ccccc4[nH]3)CC2)c1C`, for which the “hERG current change (%, negative = inhibition) at 10uM” value worked out at 0.133%. In the case of `O=c1cc(CN2CCN(c3ccccn3)CC2)nc2sccn12`, the “hERG current change (%, negative = inhibition) at 10uM” value is on record as 8.72%. In the case of `COc1cccc(OC)c1OCCNC(C)(C)C.O=C(O)C(=O)O`, the “hERG current change (%, negative = inhibition) at 10uM” value came out at 7.11%.

Consider `Cn1[nH]c(=O)c(Cl)c(Cl)c1=O`, for which the “hERG current change (%, negative = inhibition) at 10uM” value is listed as 11.5%. In the case of `COCCN(C(=O)COC(=O)Cc1cccc(OC)c1)c1c(N)n(Cc2ccccc2)c(=O)[nH]c1=O` it was -15.6%. `NC(=O)CSc1nnc(-c2ccncc2)n1-c1ccc(Cl)cc1`: the “hERG current change (%, negative = inhibition) at 10uM” value is given as -21.5%.

Regarding `N#C/C(=C\c1ccc(-c2cccc([N+](=O)[O-])c2)o1)C(=O)NCCN1CCOCC1`, the “hERG current change (%, negative = inhibition) at 10uM” value was -47.2%. Regarding `Fc1ccc(Cc2nnc(-c3cccs3)o2)cc1`, the “hERG current change (%, negative = inhibition) at 10uM” value is -18.7%. In the case of `O=C(Nc1ccc(NC(=O)c2sc3ccccc3c2Cl)cc1)c1ccco1` it was 38.5%; in that of `CC1(C)Cc2c(cnn2-c2cccc(F)c2)C(NC(=O)c2ccc(=O)[nH]n2)C1` (stereo not shown), -70.2%.

As for `Cl.Nc1ccc(Br)c2cccnc12`, the “hERG current change (%, negative = inhibition) at 10uM” value stood at 11.6%.

In the case of `Cc1ccc(S(=O)(=O)CC2CSc3nnc(C)c(=O)n32)cc1` (stereo not shown), the “hERG current change (%, negative = inhibition) at 10uM” value came to 18.6%. `COc1cccc(CN(C)C(=O)c2cc(-c3ccc(OC)c(OC)c3)nc3ccccc23)c1`: the “hERG current change (%, negative = inhibition) at 10uM” value is recorded as -21.3%. Under `COc1ccc(NC(=S)N/C(=N/S(=O)(=O)c2ccc(C)cc2)c2ccccc2)cc1` stands 21.2%; under `O=C(CCCOc1ccc(Cl)cc1Cl)N1CCc2ccccc2C1`, 12%; under `O=S1(=O)N=C(Oc2cccc3ccccc23)c2ccccc21`, 7.02%. Regarding `O=C(C1=C(O)C(=O)N(CCCn2ccnc2)C1c1ccccc1)c1ccco1` (stereo not shown), the “hERG current change (%, negative = inhibition) at 10uM” value is given as 7.9%. Take `COc1ccccc1N1CCN(C(=O)CN2C(=O)c3ccccc3S2(=O)=O)CC1`: the “hERG current change (%, negative = inhibition) at 10uM” value is listed as -4.91%. As to `CNc1c(NS(=O)(=O)c2ccc(C(C)(C)C)cc2)c(=O)oc2ccccc12`, the “hERG current change (%, negative = inhibition) at 10uM” value is -29.6%.

As for `COc1ccc(N=C2SCC(c3ccccc3)=NN2C)cc1`, the “hERG current change (%, negative = inhibition) at 10uM” value is 8.46%. Take `Cc1cc(C)n2c(SCC(=O)Nc3ccc(F)cc3F)nnc2n1`: the “hERG current change (%, negative = inhibition) at 10uM” value was determined as 65.3%. In the case of `O=C(CNc1c(Br)cc(Br)cc1Br)NN=C1CCCCC1` it was -7.41%. For `CC(C)(C)NC(=O)COc1ccc(CNCc2cccs2)cc1.Cl`, the “hERG current change (%, negative = inhibition) at 10uM” value is reported as 2.41%.

Consider `Cn1c(=O)c2c(nc(SCCN3CCCCC3)n2Cc2ccccc2)n(C)c1=O`, for which the “hERG current change (%, negative = inhibition) at 10uM” value is given as -76%.

Take `CC(C)(C)C1CCC(=NOC(=O)c2ccc(F)cc2)CC1` (stereo not shown): the “hERG current change (%, negative = inhibition) at 10uM” value stood at 15.7%. For the molecule `Cc1ccc(CNc2nc(N)c([N+](=O)[O-])c(Nc3cccc(F)c3)n2)cc1`, the “hERG current change (%, negative = inhibition) at 10uM” value is reported as -6.33%. Consider `Cc1cc(=O)[nH]c(SCC(=O)c2ccc(O)c(O)c2)n1`, for which the “hERG current change (%, negative = inhibition) at 10uM” value worked out at 22.6%. In the case of `C/C(=N\NC(=O)CCC(=O)Nc1ccc(C)c(C)c1)C1CC1`, the “hERG current change (%, negative = inhibition) at 10uM” value amounted to 10.7%. In the case of `O=C(CSc1nc2ccccc2[nH]1)N/N=C/c1ccncc1`, the “hERG current change (%, negative = inhibition) at 10uM” value is reported as -2.17%. With `CC1(C)Cn2c(nnc2-c2ccccc2)S1`, the “hERG current change (%, negative = inhibition) at 10uM” value was 14.1%. In the case of `CC1(C)CC(CC(=O)Nc2ccc([N+](=O)[O-])cc2)C(=O)O1` (stereo not shown), the “hERG current change (%, negative = inhibition) at 10uM” value was -22.5%.
